The text below walks through data of a collection of fitness landscapes (doi:10.1126/science.1257360).

The chains are these.
B1: PhoQ; a variant is named by its letters at X, in order, P23837 (parent)
chain: MKKLLRLFFPLSLRVRFLLATAAVVLVLSLAYGMVALIGYSVSFDKTTFRLLRGESNLFYTLAKWENNKLHVELPENIDKQSPTMTLIYDENGQLLWAQRDVPWLMKMIQPDWLKSNGFHEIEADVNDTSLLLSGDHSIQQQLQEVREDDDDAEMTHSVAVNVYPATSRMPKLTIVVVDTIPVELKSSYMVWSWFIYVLSANLLLVIPLLWVAAWWSLRPIEALAKEVRELEEHNRELLNPATTRELTSLVRNLNRLLKSERERYDKYRTTLTDLTHSLKTPLXXLQXXLRSLRSEKMSVSDAEPVMLEQISRISQQIGYYLHRASMRGGTLLSRELHPVAPLLDNLTSALNKVYQRKGVNISLDISPEISFVGEQNDFVEVMGNVLDNACKYCLEFVEISARQTDEHLYIVVEDDGPGIPLSKREVIFDRGQRVDTLRPGQGVGLAVAREITEQYEGKIVAGESMLGGARMEVIFGRQHSAPKDE

The list shows a part of the results.

The variants in the experiment derive from B1. Put plainly: enrichment ratio after two sorts for PhoP signalling (ratio (wild type AVST 3.29)); higher = more functional. To be noted: with PhoP (E. coli).
Consider NDDY, for which the enrichment ratio was at most 0.25.
Turning to VWYM, the enrichment ratio is at most 0.25.
The same measure for TRLF: 3.9; for IHTE: at most 0.25; for PPKW: at most 0.25.
As for VVVA, the figure is at most 0.25.
As for NQLF, the figure is at most 0.25; as for RRML, at most 0.25; as for ICLE, 1.52.
Regarding FPSV, the enrichment ratio was at most 0.25.
Regarding VKEV, the enrichment ratio is at most 0.25.
QRPG: the enrichment ratio is at most 0.25.
The same measure for RKMV: at most 0.25.
Regarding SHYF, the enrichment ratio was at most 0.25.
In the case of RNIS, the enrichment ratio was at most 0.25.
Regarding FQYL, the enrichment ratio is at most 0.25.
Consider PVDP, for which the enrichment ratio is at most 0.25.
As for SSGW, the figure is at most 0.25; as for RGYF, at most 0.25; as for RGQW, at most 0.25.
As for EFNN, the figure is at most 0.25; as for KVRK, at most 0.25.
The same measure for VPWH: at most 0.25.
Turning to HSRT, the enrichment ratio was at most 0.25.
Consider ICMA, for which the enrichment ratio is at most 0.25.
As for DMKL, the figure is at most 0.25; as for HCIL, at most 0.25.
The same measure for KCDQ: at most 0.25.
For DQSH, the enrichment ratio is at most 0.25.
As to EVKD, the enrichment ratio is at most 0.25.
The same measure for NASP: at most 0.25; for RTHE: at most 0.25.
As for HSPI, the figure is at most 0.25; as for FINP, at most 0.25; as for GARH, at most 0.25.
Regarding LGLG, the enrichment ratio came to 1.32.
As for HEVA, the figure is at most 0.25; as for LDHQ, at most 0.25; as for INYQ, at most 0.25.
The same measure for ACDK: at most 0.25; for DTHI: at most 0.25; for RDWA: at most 0.25.
As to FVWD, the enrichment ratio was at most 0.25.
With VKPR, the enrichment ratio is at most 0.25.
As for DLGW, the enrichment ratio was at most 0.25.
As to SKSL, the enrichment ratio is 8.21.
Consider NYMR, for which the enrichment ratio was at most 0.25.
For the variant FDVA, the enrichment ratio was at most 0.25.
As for RSWL, the figure is at most 0.25; as for HARH, at most 0.25.
Regarding ETID, the enrichment ratio was at most 0.25.
The same measure for VPHK: at most 0.25; for PRQI: at most 0.25.
As for TDDL, the figure is at most 0.25.
DEYK: the enrichment ratio was at most 0.25.
The same measure for SPRR: at most 0.25.
Take LFVD: the enrichment ratio is at most 0.25.
For the variant RPNK, the enrichment ratio is at most 0.25.
As for QKYQ, the figure is at most 0.25.
Turning to PDTE, the enrichment ratio was at most 0.25.
With LLRR, the enrichment ratio was at most 0.25.
As for LYTY, the figure is at most 0.25.
As for WSVY, the figure is at most 0.25.
Regarding QNDA, the enrichment ratio is at most 0.25.
The same measure for KRVK: at most 0.25; for PATK: at most 0.25; for ELFF: at most 0.25.
Consider DSAM, for which the enrichment ratio is at most 0.25.
The same measure for FVIA: at most 0.25.
The same measure for GPQD: at most 0.25.
The same measure for SRIQ: at most 0.25; for IFSF: at most 0.25.
Take SANM: the enrichment ratio was determined as 9.22.
The same measure for YHAI: at most 0.25; for LASF: at most 0.25.
As for IPIR, the figure is at most 0.25; as for TDWM, at most 0.25.
Consider YACG, for which the enrichment ratio was at most 0.25.
On to FTLY, for which the enrichment ratio was found to be 7.11.
For the variant MIPF, the enrichment ratio was at most 0.25.
As to LCVQ, the enrichment ratio was at most 0.25.
The same measure for FCYL: at most 0.25; for SKHS: at most 0.25.
The same measure for LQMG: at most 0.25; for TACE: at most 0.25.
On to HMSH, for which the enrichment ratio was at most 0.25.
As for QKRQ, the enrichment ratio was at most 0.25.
The same measure for MPIH: at most 0.25; for IDMS: at most 0.25; for PPIR: at most 0.25.
As for YQTC, the figure is 0.362; as for LNIA, at most 0.25.
As to LDCK, the enrichment ratio is at most 0.25.
As to SFMG, the enrichment ratio was 6.91.
Turning to MHVW, the enrichment ratio is at most 0.25.
With DQFG, the enrichment ratio is at most 0.25.
Take FGFC: the enrichment ratio is at most 0.25.
Regarding QWCY, the enrichment ratio is at most 0.25.
As for TGVL, the figure is 1.12; as for GSQK, at most 0.25; as for LYHD, at most 0.25.
For the variant PYYC, the enrichment ratio was at most 0.25.
As for WCFT, the figure is at most 0.25; as for DCTE, at most 0.25.
For LYII, the enrichment ratio is at most 0.25.
As for WKDS, the figure is at most 0.25; as for LEFW, at most 0.25; as for RIHS, at most 0.25.
The same measure for GNLN: 3.44; for KETL: at most 0.25; for NESM: at most 0.25.
As for VCWI, the figure is at most 0.25.
As to PTPC, the enrichment ratio is at most 0.25.
PNHV: the enrichment ratio was at most 0.25.
Take FLDA: the enrichment ratio was at most 0.25.
Regarding LCPR, the enrichment ratio is at most 0.25.
As for MRCS, the figure is at most 0.25; as for SSIH, 3.59; as for MCFS, at most 0.25.
The same measure for TSYY: 5.72; for PESG: at most 0.25; for FMAT: at most 0.25.
The same measure for CSRA: at most 0.25; for THAR: at most 0.25.
As to MAGI, the enrichment ratio is 7.63.
As for STNP, the figure is at most 0.25.
As for VDWD, the figure is at most 0.25.
INNI: the enrichment ratio was at most 0.25.
Take DYKM: the enrichment ratio was at most 0.25.
The same measure for MGII: 5.02.
Regarding LLKR, the enrichment ratio was at most 0.25.
LFIG: the enrichment ratio is at most 0.25.
As for PWYE, the figure is at most 0.25.
As for GGCI, the figure is 0.663.
The same measure for MQAF: at most 0.25; for NNAN: at most 0.25.
With LCMI, the enrichment ratio was at most 0.25.
As for SQSK, the figure is at most 0.25.
As for VEGI, the figure is at most 0.25; as for TVSD, 2.78.
In the case of DDNY, the enrichment ratio is at most 0.25.
The same measure for ITLS: 1.53; for HYPH: at most 0.25.
The same measure for KWLK: at most 0.25; for QVIW: at most 0.25; for WSPV: at most 0.25.
The same measure for WIIC: at most 0.25; for LYDH: at most 0.25; for PSRN: at most 0.25.
For the variant AYFR, the enrichment ratio was at most 0.25.
As for HTRS, the figure is at most 0.25; as for RHCS, at most 0.25.
Turning to DTWI, the enrichment ratio was at most 0.25.
